Test results taken from patent US11178870B2 (priority 2017, dated 2021).

Tests used:
Type in all cases: in vivo
Alternaia brassicicola = assay: Test Example C: Alternaria sooty spot on cabbage; details: for control value, Test C (Alternaria sooty spot on cabbage): Table 7, Test C; for Test C control value: Alternaria sooty spot on cabbage; for Test C control value (Alternaria sooty spot on cabbage): class of control value, Table 7
Botrytis cinerea = assay: Test Example B: Gray mold on tomato; details: for control value, Test B (gray mold on tomato): Table 7, Test B; for Test B control value: Gray mold on tomato; for Test B control value (gray mold on tomato): class of control value, Table 7
Plasmopara viticola = assay: Test Example G: Downy mildew on vine; details: for control value, Test G (downy mildew on vine): 250 ppm sprayed (2.5 ml/pot) before inoculation, assessed 7 to 10 days after inoculation; for Test G control value: Downy mildew on vine, 250 ppm sprayed, 7 to 10 days after inoculation; for Test G control value / Test G control value (downy mildew on vine): 2.5 ml/pot; for Test G control value (downy mildew on vine): 250 ppm spray, investigated 7 to 10 days after inoculation
[1] = test system: Blumeria graminis f. sp. hordei; assay: Test Example D: Powdery mildew on barley; details: for control value, Test D (powdery mildew on barley): Table 7, Test D; for Test D control value: Powdery mildew on barley; for Test D control value (powdery mildew on barley): class of control value, Table 7
Puccinia recondita = assay: Test Example E: Brown rust on wheat; details: for control value, Test E (brown rust on wheat): Table 7, Test E; for Test E control value: Brown rust on wheat; for Test E control value (brown rust on wheat): class of control value, Table 7

Cc1cnn(-c2cc(Br)c(=O)n(CC(F)F)c2-c2ccccc2F)c1Cl [Compound 312]
control value, Test C (Alternaria sooty spot on cabbage) (Alternaia brassicicola): H (H shows the control value more than 50%) | control value, Test B (gray mold on tomato) (Botrytis cinerea): H (H shows the control value more than 50%) | control value, Test G (downy mildew on vine) (Plasmopara viticola): L (L shows the control value of 50% or less) | control value, Test D (powdery mildew on barley) [1]: H (H shows the control value more than 50%) | control value, Test E (brown rust on wheat) (Puccinia recondita): H (H shows the control value more than 50%)

CCn1c(-c2ccc(F)cc2Cl)c(-n2cc(F)cn2)ccc1=O [Compound 327]
control value, Test C (Alternaria sooty spot on cabbage) (Alternaia brassicicola): H (H shows the control value more than 50%) | control value, Test B (gray mold on tomato) (Botrytis cinerea): H (H shows the control value more than 50%) | control value, Test G (downy mildew on vine) (Plasmopara viticola): L (L shows the control value of 50% or less) | control value, Test D (powdery mildew on barley) [1]: H (H shows the control value more than 50%) | control value, Test E (brown rust on wheat) (Puccinia recondita): H (H shows the control value more than 50%)

O=c1c(Cl)cc(-n2cc(Cl)cn2)c(-c2ccccc2Br)n1CC(F)F [Compound 290]
control value, Test C (Alternaria sooty spot on cabbage) (Alternaia brassicicola): H (H shows the control value more than 50%) | control value, Test B (gray mold on tomato) (Botrytis cinerea): L (L shows the control value of 50% or less) | control value, Test G (downy mildew on vine) (Plasmopara viticola): L (L shows the control value of 50% or less) | control value, Test D (powdery mildew on barley) [1]: H (H shows the control value more than 50%) | control value, Test E (brown rust on wheat) (Puccinia recondita): H (H shows the control value more than 50%)

O=c1ccc(-c2cccnc2Cl)c(-c2c(F)cccc2F)n1CC(F)F [Compound 56]
Test C control value (Alternaia brassicicola): H (H shows the control value more than 50%) | Test B control value (Botrytis cinerea): H (H shows the control value more than 50%) | Test G control value (Plasmopara viticola): H (H shows the control value more than 50%) | Test D control value [1]: H (H shows the control value more than 50%) | Test E control value (Puccinia recondita): H (H shows the control value more than 50%)

Cc1cnn(-c2cc(Br)c(=O)n(N(C)C)c2-c2ccc(F)cc2F)c1Cl [Compound 470]
Test C control value (Alternaria sooty spot on cabbage) (Alternaia brassicicola): H (H shows the control value more than 50%) | Test B control value (gray mold on tomato) (Botrytis cinerea): H (H shows the control value more than 50%) | Test G control value (downy mildew on vine) (Plasmopara viticola): H (H shows the control value more than 50%) | Test D control value (powdery mildew on barley) [1]: H (H shows the control value more than 50%) | Test E control value (brown rust on wheat) (Puccinia recondita): H (H shows the control value more than 50%)

CCn1c(-c2ccccc2C)c(-n2cc(C)cn2)cc(Br)c1=O [Compound 237]
control value, Test C (Alternaria sooty spot on cabbage) (Alternaia brassicicola): H (H shows the control value more than 50%) | control value, Test B (gray mold on tomato) (Botrytis cinerea): L (L shows the control value of 50% or less) | control value, Test G (downy mildew on vine) (Plasmopara viticola): L (L shows the control value of 50% or less) | control value, Test D (powdery mildew on barley) [1]: L (L shows the control value of 50% or less) | control value, Test E (brown rust on wheat) (Puccinia recondita): L (L shows the control value of 50% or less)

CCOc1cc(F)c(-c2c(-n3cc(F)cn3)cc(Br)c(=O)n2CC)c(F)c1 [Compound 317]
control value, Test C (Alternaria sooty spot on cabbage) (Alternaia brassicicola): H (H shows the control value more than 50%) | control value, Test B (gray mold on tomato) (Botrytis cinerea): H (H shows the control value more than 50%) | control value, Test G (downy mildew on vine) (Plasmopara viticola): L (L shows the control value of 50% or less) | control value, Test D (powdery mildew on barley) [1]: L (L shows the control value of 50% or less) | control value, Test E (brown rust on wheat) (Puccinia recondita): H (H shows the control value more than 50%)

CCn1c(-c2c(F)cc(F)cc2F)c(-c2cccnc2Cl)ccc1=O [Compound 61]
Test C control value (Alternaia brassicicola): H (H shows the control value more than 50%) | Test B control value (Botrytis cinerea): H (H shows the control value more than 50%) | Test G control value (Plasmopara viticola): H (H shows the control value more than 50%) | Test D control value [1]: H (H shows the control value more than 50%) | Test E control value (Puccinia recondita): H (H shows the control value more than 50%)

CCn1c(-c2ccccc2C(F)(F)F)c(-n2ncc(C)c2Cl)cc(Cl)c1=O [Compound 375]
Test C control value (Alternaria sooty spot on cabbage) (Alternaia brassicicola): H (H shows the control value more than 50%) | Test B control value (gray mold on tomato) (Botrytis cinerea): H (H shows the control value more than 50%) | Test G control value (downy mildew on vine) (Plasmopara viticola): H (H shows the control value more than 50%) | Test D control value (powdery mildew on barley) [1]: H (H shows the control value more than 50%) | Test E control value (brown rust on wheat) (Puccinia recondita): H (H shows the control value more than 50%)

CCn1c(-c2c(F)cc(F)cc2F)c(-n2cc(C)cn2)cc(Br)c1=O [Compound 101]
Test C control value (Alternaia brassicicola): H (H shows the control value more than 50%) | Test B control value (Botrytis cinerea): H (H shows the control value more than 50%) | Test G control value (Plasmopara viticola): L (L shows the control value of 50% or less) | Test D control value [1]: H (H shows the control value more than 50%) | Test E control value (Puccinia recondita): H (H shows the control value more than 50%)

CCOc1cc(F)c(-c2c(-n3cc(Cl)cn3)cc(Cl)c(=O)n2CC)c(F)c1 [Compound 200]
control value, Test C (Alternaria sooty spot on cabbage) (Alternaia brassicicola): H (H shows the control value more than 50%) | control value, Test B (gray mold on tomato) (Botrytis cinerea): H (H shows the control value more than 50%) | control value, Test G (downy mildew on vine) (Plasmopara viticola): L (L shows the control value of 50% or less) | control value, Test D (powdery mildew on barley) [1]: H (H shows the control value more than 50%) | control value, Test E (brown rust on wheat) (Puccinia recondita): H (H shows the control value more than 50%)

Cn1c(-c2ccc(F)cc2Cl)c(-n2cc(F)cn2)cc(Br)c1=O [Compound 483]
Test C control value (Alternaria sooty spot on cabbage) (Alternaia brassicicola): H (H shows the control value more than 50%) | Test B control value (gray mold on tomato) (Botrytis cinerea): H (H shows the control value more than 50%) | Test G control value (downy mildew on vine) (Plasmopara viticola): L (L shows the control value of 50% or less) | Test D control value (powdery mildew on barley) [1]: H (H shows the control value more than 50%) | Test E control value (brown rust on wheat) (Puccinia recondita): H (H shows the control value more than 50%)

CCn1c(-c2c(F)cc(F)cc2F)c(-n2ncc(C)c2Cl)cc(Cl)c1=O [Compound 83]
Test C control value (Alternaia brassicicola): H (H shows the control value more than 50%) | Test B control value (Botrytis cinerea): H (H shows the control value more than 50%) | Test G control value (Plasmopara viticola): L (L shows the control value of 50% or less) | Test D control value [1]: H (H shows the control value more than 50%) | Test E control value (Puccinia recondita): H (H shows the control value more than 50%)

CCn1c(-c2c(F)cc(OC)cc2F)c(-n2c(C)ccc2C)cc(Cl)c1=O [Compound 126]
Test C control value (Alternaia brassicicola): H (H shows the control value more than 50%) | Test B control value (Botrytis cinerea): H (H shows the control value more than 50%) | Test G control value (Plasmopara viticola): L (L shows the control value of 50% or less) | Test D control value [1]: L (L shows the control value of 50% or less) | Test E control value (Puccinia recondita): H (H shows the control value more than 50%)

CCn1c(-c2c(F)cc(OC)cc2F)c(-c2oc(Cl)nc2Cl)cc(Cl)c1=O [Compound 114]
Test C control value (Alternaia brassicicola): H (H shows the control value more than 50%) | Test B control value (Botrytis cinerea): H (H shows the control value more than 50%) | Test G control value (Plasmopara viticola): L (L shows the control value of 50% or less) | Test D control value [1]: L (L shows the control value of 50% or less) | Test E control value (Puccinia recondita): H (H shows the control value more than 50%)

CCn1c(-c2c(F)cccc2F)c(-n2ncc(C)c2Cl)ccc1=O [Compound 153]
Test C control value (Alternaia brassicicola): H (H shows the control value more than 50%) | Test B control value (Botrytis cinerea): H (H shows the control value more than 50%) | Test G control value (Plasmopara viticola): H (H shows the control value more than 50%) | Test D control value [1]: H (H shows the control value more than 50%) | Test E control value (Puccinia recondita): H (H shows the control value more than 50%)

O=c1c(Br)cc(-n2cc(Cl)cn2)c(-c2c(F)cc(F)cc2F)n1CC(F)F [Compound 207]
control value, Test C (Alternaria sooty spot on cabbage) (Alternaia brassicicola): H (H shows the control value more than 50%) | control value, Test B (gray mold on tomato) (Botrytis cinerea): H (H shows the control value more than 50%) | control value, Test G (downy mildew on vine) (Plasmopara viticola): H (H shows the control value more than 50%) | control value, Test D (powdery mildew on barley) [1]: H (H shows the control value more than 50%) | control value, Test E (brown rust on wheat) (Puccinia recondita): H (H shows the control value more than 50%)

CCn1c(-c2c(F)cccc2F)c(-c2ccsc2Cl)ccc1=O [Compound 296]
control value, Test C (Alternaria sooty spot on cabbage) (Alternaia brassicicola): H (H shows the control value more than 50%) | control value, Test B (gray mold on tomato) (Botrytis cinerea): H (H shows the control value more than 50%) | control value, Test G (downy mildew on vine) (Plasmopara viticola): H (H shows the control value more than 50%) | control value, Test D (powdery mildew on barley) [1]: H (H shows the control value more than 50%) | control value, Test E (brown rust on wheat) (Puccinia recondita): H (H shows the control value more than 50%)

CCn1c(-c2c(F)cc(OC)cc2F)c(-c2cccnc2Cl)cc(Br)c1=O [Compound 81]
Test C control value (Alternaia brassicicola): H (H shows the control value more than 50%) | Test B control value (Botrytis cinerea): H (H shows the control value more than 50%) | Test G control value (Plasmopara viticola): L (L shows the control value of 50% or less) | Test D control value [1]: H (H shows the control value more than 50%) | Test E control value (Puccinia recondita): H (H shows the control value more than 50%)

CCn1c(-c2ccccc2Cl)c(-n2cc(Cl)cn2)ccc1=O [Compound 169]
Test C control value (Alternaia brassicicola): H (H shows the control value more than 50%) | Test B control value (Botrytis cinerea): H (H shows the control value more than 50%) | Test G control value (Plasmopara viticola): L (L shows the control value of 50% or less) | Test D control value [1]: H (H shows the control value more than 50%) | Test E control value (Puccinia recondita): H (H shows the control value more than 50%)

CCn1c(-c2c(F)cccc2F)c(-c2sc(Br)cc2C)ccc1=O [Compound 386]
Test C control value (Alternaria sooty spot on cabbage) (Alternaia brassicicola): H (H shows the control value more than 50%) | Test B control value (gray mold on tomato) (Botrytis cinerea): H (H shows the control value more than 50%) | Test G control value (downy mildew on vine) (Plasmopara viticola): L (L shows the control value of 50% or less) | Test D control value (powdery mildew on barley) [1]: H (H shows the control value more than 50%) | Test E control value (brown rust on wheat) (Puccinia recondita): H (H shows the control value more than 50%)
